Reference: the supplement of paper PMC6609913
Counter-ions that a name gives are not always drawn. ± gives the standard deviation of the averaged measurements. The full ranking holds about 1,300 compounds; the median of “normalised cell viability” is about 1, and the lowest 2% start at about 0.14. The list shows a part of the results.

Test system: V-C8 (BRCA2-deficient hamster cells)
Experiment: normalised cell viability (fraction of plate median); higher = more viable cells (less toxic)
Details: 5 µM
Procedure, shortened: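 Library drugs, held as 10 mM stocks in DMSO, were diluted to 5 μM in 100 μl medium and added to 96-well plates of V-C8 hamster cells, either lacking BRCA2 or with BRCA2 restored, 24 h after seeding. Plates ran for 3 days (screen 1) or 6 days (screen 2), alongside solvent-only wells. Viability came from a resazurin readout, median-plate normalised, as the mean of triplicate wells.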

Structure (SMILES) | normalised cell viability (treatment time: 3 days) | normalised cell viability (treatment time: 6 days)
CCc1nn(CCCN2CCN(c3cccc(Cl)c3)CC2)c(=O)n1CCOc1ccccc1 [Nefazodone HCl] | 0.764 ± 0.036 | 0.8488 ± 0.0051
C[N+](C)(CCOc1ccccc1)Cc1ccccc1.O=C([O-])c1cc2ccccc2cc1O [Bephenium hydroxynaphthoate] | 1.01 ± 0.042 | 0.999 ± 0.033
CC(NCCc1ccc(O)cc1)C(O)c1ccc(O)cc1 (stereo not given) [Ritodrine hydrochloride] | 1.05 ± 0.048 | 1.09 ± 0.088
CCC1(C)CC(=O)NC1=O (stereo not given) [Ethosuximide] | 0.918 ± 0.067 | 1.07 ± 0.058
NC1CCN(c2c(F)cc3c(=O)c(C(=O)O)cn(C4CC4)c3c2Cl)C1 (stereo not given) [Clinafloxacin] | 0.408 ± 0.034 | 0.286 ± 0.0081
CCCNC(C)(C)COC(=O)c1ccccc1 [Meprylcaine hydrochloride] | 1 ± 0.042 | 1.25 ± 0.47
CCCc1nn(C)c2c(=O)[nH]c(-c3cc(S(=O)(=O)N4CCN(C)CC4)ccc3OCC)nc12 [Sildenafil] | 1.08 ± 0.039 | 0.985 ± 0.078
CC(=O)Oc1ccc(C(c2ccc(OC(C)=O)cc2)c2ccccn2)cc1 [Bisacodyl] | 1.1 ± 0.039 | 0.99 ± 0.026
CN1CCN2c3ccccc3Cc3ccccc3C2C1 (stereo not given) [Mianserine hydrochloride] | 1.07 ± 0.063 | 1.1 ± 0.044
N[C@@H](Cc1ccc(O)c(O)c1)C(=O)O [Levodopa] | 0.937 ± 0.029 | 0.931 ± 0.035
O=C(O)CCC(=O)c1ccc(-c2ccccc2)cc1 [Fenbufen] | 0.976 ± 0.034 | 0.98 ± 0.06
C[N+](C)(C)CCOC(N)=O [Carbachol] | 1.03 ± 0.064 | 1.03 ± 0.058
CC(C)(C)NC[C@H](O)COc1cccc2c1CCCC2=O [(-) -Levobunolol hydrochloride] | 1 ± 0.042 | 1.1 ± 0.19
Nc1ncn(C2OC(CO)C(O)C2O)c(=O)n1 (stereo not given) [Azacytidine-5] | 0.793 ± 0.025 | 0.895 ± 0.033
O=C(NC(Cc1cc(=O)[nH]c2ccccc12)C(=O)O)c1ccc(Cl)cc1 (stereo not given) [Rebamipide] | 0.982 ± 0.04 | 1.05 ± 0.06
O=C1c2c(O)ccc(O)c2C(=O)c2c(NCCNCCO)ccc(NCCNCCO)c21 [Mitoxantrone dihydrochloride] | 0.143 ± 0.0017 | 0.116 ± 0.011
CCOC(=O)C1=C(C)NC(C)=C(C(=O)OC)C1c1cccc(Cl)c1Cl (stereo not given) [Felodipine] | 0.83 ± 0.088 | 0.765 ± 0.015
C[C@H](CCC(=O)O)[C@H]1CC[C@H]2[C@@H]3C(=O)C[C@@H]4CC(=O)CC[C@]4(C)[C@H]3CC(=O)[C@]12C [Dehydrocholic acid] | 1.22 ± 0.056 | 1.18 ± 0.031
CCCCC(=O)N(Cc1ccc(-c2ccccc2-c2nnn[nH]2)cc1)[C@H](C(=O)O)C(C)C [Valsartan] | 0.96 ± 0.038 | 0.986 ± 0.052
OC(CCN1CCCCC1)(c1ccccc1)c1ccccc1 [Pridinol methanesulfonate salt] | 0.91 ± 0.055 | 0.914 ± 0.05
CCN(CC)CCNC(=O)c1cc(Br)c(N)cc1OC [Bromopride] | 1.01 ± 0.054 | 1.05 ± 0.009
CC(C)NNC(=O)c1ccncc1 [Iproniazide phosphate] | 0.993 ± 0.012 | 0.993 ± 0.08
O=C1c2cccc(O)c2C(=O)c2c(O)cccc21 [1,8-Dihydroxyanthraquinone] | 0.838 ± 0.065 | 0.78 ± 0.021
CCOC(=O)C1=C(C)NC(C)=C(C(=O)OC)C1c1cccc([N+](=O)[O-])c1 (stereo not given) [Nitrendipine] | 0.963 ± 0.0098 | 0.971 ± 0.024

Structure (SMILES) | normalised cell viability (treatment time: 3 days) | normalised cell viability (treatment time: 6 days)
CCn1cc(C(=O)O)c(=O)c2cc(F)c(N3CCNCC3)cc21 [Norfloxacin] | 1.01 ± 0.073 | 1.12 ± 0.036
O=C(c1ccc(OCCN2CCCCC2)cc1)c1c(-c2ccc(O)cc2)sc2cc(O)ccc12 [Raloxifene hydrochloride] | 0.808 ± 0.031 | 0.803 ± 0.089
NS(=O)(=O)c1cc2c(cc1C(F)(F)F)NC(Cc1ccccc1)NS2(=O)=O (stereo not given) [Bendroflumethiazide] | 0.999 ± 0.015 | 1.06 ± 0.062
CC(CN1c2ccccc2Sc2ccccc21)N(C)C (stereo not given) [Promethazine hydrochloride] | 0.956 ± 0.019 | 0.922 ± 0.058
Nc1nc(N)nc(-c2cc(Cl)ccc2Cl)n1 [Irsogladine maleate] | 0.154 ± 0.0044 | 0.167 ± 0.0032
CCN1CCCC1CNC(=O)c1cc(S(=O)(=O)CC)c(N)cc1OC (stereo not given) [Amisulpride] | 1.05 ± 0.044 | 1.07 ± 0.046
COc1cc(N)c(Cl)cc1C(=O)NC1CCN(Cc2ccccc2)CC1 [Clebopride maleate] | 0.916 ± 0.042 | 0.955 ± 0.031
COc1ccccc1OCCNCC(O)COc1cccc2[nH]c3ccccc3c12 (stereo not given) [Carvedilol] | 0.799 ± 0.037 | 0.69 ± 0.039
CC(C)c1nc(CN(C)C(=O)N[C@H](C(=O)N[C@@H](Cc2ccccc2)C[C@H](O)[C@H](Cc2ccccc2)NC(=O)OCc2cncs2)C(C)C)cs1 [Ritonavir] | 1.13 ± 0.073 | 1.07 ± 0.097
CC(C)[C@H]1CC[C@H](C(=O)N[C@H](Cc2ccccc2)C(=O)O)CC1 [Nateglinide] | 1.05 ± 0.068 | 1.06 ± 0.084
CCCCOc1ccc(OCCCN2CCOCC2)cc1 [Pramoxine hydrochloride] | 1.06 ± 0.053 | 0.995 ± 0.019
CC1CCc2cc(F)cc3c(=O)c(C(=O)O)cn1c23 (stereo not given) [Flumequine] | 1.03 ± 0.025 | 0.967 ± 0.043
O=C(NCC1CCCCN1)c1cc(OCC(F)(F)F)ccc1OCC(F)(F)F (stereo not given) [Flecainide acetate] | 1.04 ± 0.085 | 1.08 ± 0.047
COC(=O)Nc1nc2cc(C(=O)c3ccc(F)cc3)ccc2[nH]1 [Flubendazol] | 0.148 ± 0.019 | 0.16 ± 0.0047
CC(C)(C)NC(=O)[C@@H]1CN(Cc2cccnc2)CCN1C[C@@H](O)C[C@@H](Cc1ccccc1)C(=O)N[C@H]1c2ccccc2C[C@H]1O [Indinavir sulfate] | 1.1 ± 0.079 | 1.04 ± 0.027
O=C(O[C@@H]1C[C@@H]2C[C@H]3C[C@H](C1)N2CC3=O)c1c[nH]c2ccccc12 [Dolasetron mesilate] | 0.963 ± 0.027 | 1.04 ± 0.032
CC(C)(C)NCC(O)c1ccc(O)c(CO)c1 (stereo not given) [Salbutamol] | 1.07 ± 0.084 | 1.033 ± 0.0092
Cn1c(=O)c2c(ncn2C)n(C)c1=O [Caffeine] | 0.962 ± 0.14 | 1.06 ± 0.061
Cc1c(OCC(F)(F)F)ccnc1C[S+]([O-])c1nc2ccccc2[nH]1 (stereo not given) [Lansoprazole] | 1.01 ± 0.035 | 0.973 ± 0.052
O=C(O)CNC(=O)C(CS)Cc1ccccc1 (stereo not given) [Thiorphan] | 0.919 ± 0.046 | 0.959 ± 0.1
Cc1onc(-c2ccccc2)c1C(=O)N[C@@H]1C(=O)N2[C@@H]1SC(C)(C)[C@@H]2C(=O)O [Oxacillin sodium] | 1.06 ± 0.018 | 0.831 ± 0.064
CN(C)CCCC1(c2ccc(F)cc2)OCc2cc(C#N)ccc21 (stereo not given) [Citalopram Hydrobromide] | 1.05 ± 0.028 | 1.02 ± 0.041
CCCC(CCC)C(=O)O [Valproic acid] | 1.05 ± 0.059 | 0.977 ± 0.033
CN(C)CCC(c1ccc(Cl)cc1)c1ccccn1 (stereo not given) [Chlorpheniramine maleate] | 1.2 ± 0.21 | 1.071 ± 0.0096

Structure (SMILES) | normalised cell viability (treatment time: 3 days) | normalised cell viability (treatment time: 6 days)
COc1cc(N)c(Cl)cc1C(=O)NC1CCN(CCCOc2ccc(F)cc2)CC1OC (stereo not given) [Cisapride] | 0.889 ± 0.018 | 0.894 ± 0.066
COC1=CC(=O)C[C@@H](C)[C@]12Oc1c(Cl)c(OC)cc(OC)c1C2=O [Griseofulvin] | 0.754 ± 0.17 | 0.858 ± 0.045
CCN(CCCc1ccccc1)CCCc1ccccc1 [Alverine citrate salt] | 0.983 ± 0.042 | 0.993 ± 0.06
CCN(CC)C(=O)N1CCN(C)CC1 [Diethylcarbamazine citrate] | 1.09 ± 0.014 | 1.04 ± 0.057
O=P(O)(O)C(O)(Cc1cccnc1)P(=O)(O)O [Risedronic acid monohydrate] | 1.1 ± 0.043 | 1.04 ± 0.033
CCCC(C(=O)OCCN(CC)CC)(c1ccccc1)c1ccccc1 [Proadifen hydrochloride] | 0.887 ± 0.037 | 0.821 ± 0.082
C=CC[N@@+]12CC[C@@]34c5ccccc5N5/C=C6/[C@H]7C[C@H]8[C@@]9(CC[N@@+]8(CC=C)C/C7=C/CO)c7ccccc7N(/C=C(/[C@@H](C[C@@H]31)/C(=C\CO)C2)[C@H]54)[C@@H]69 [Alcuronium chloride] | 0.939 ± 0.13 | 1.03 ± 0.079
Clc1ccc(COC(Cn2ccnc2)c2ccc(Cl)cc2Cl)cc1 (stereo not given) [Econazole nitrate] | 0.938 ± 0.028 | 0.98 ± 0.023
Clc1ccccc1C(c1ccccc1)(c1ccccc1)n1ccnc1 [Clotrimazole] | 0.292 ± 0.014 | 0.328 ± 0.029
O=C(O)c1cc(=O)c2c(OCC(O)COc3cccc4oc(C(=O)O)cc(=O)c34)cccc2o1 [Cromolyn disodium salt] | 1.01 ± 0.029 | 1.04 ± 0.024
CCCCOc1ccc(CC(=O)NO)cc1 [Bufexamac] | 0.85 ± 0.06 | 0.895 ± 0.041
CC(=O)OC(C)C[N+](C)(C)C (stereo not given) [Methacholine chloride] | 1.15 ± 0.038 | 1.01 ± 0.046
C=CCc1ccccc1OCC(O)CNC(C)C (stereo not given) [Alprenolol hydrochloride] | 0.927 ± 0.037 | 0.858 ± 0.087
NC[C@H]1CC[C@H](C(=O)O)CC1 [Tranexamic acid] | 0.98 ± 0.089 | 1.05 ± 0.062
Cc1ccc(O)c([C@H](CCN(C(C)C)C(C)C)c2ccccc2)c1 [Tolterodine tartrate] | 1.02 ± 0.047 | 1 ± 0.029
CN(C)CCC(c1ccccc1)c1ccccn1 (stereo not given) [Pheniramine maleate] | 1.06 ± 0.03 | 0.98 ± 0.031
Cc1c(O)cccc1C(=O)N[C@@H](CSc1ccccc1)[C@H](O)CN1C[C@H]2CCCC[C@H]2C[C@H]1C(=O)NC(C)(C)C [Nelfinavir mesylate] | 0.814 ± 0.032 | 0.874 ± 0.043
CCSc1ccc2c(c1)N(CCCN1CCN(C)CC1)c1ccccc1S2 [Thiethylperazine dimalate] | 0.932 ± 0.029 | 1.1 ± 0.35
CNCC[C@@H](Oc1cccc2ccccc12)c1cccs1 [(R)-Duloxetine hydrochloride] | 0.908 ± 0.057 | 0.883 ± 0.092
CC(CCc1ccc(O)cc1)NCCc1ccc(O)c(O)c1 (stereo not given) [Dobutamine hydrochloride] | 1.01 ± 0.031 | 0.976 ± 0.027
Nc1ccc(S(N)(=O)=O)cc1 [Sulfanilamide] | 0.9767 ± 0.008 | 0.975 ± 0.021
CC[C@]12CCCN3CCc4c(n(c5ccccc45)[C@@](O)(C(=O)OC)C1)[C@@H]32 [Vincamine] | 1.02 ± 0.068 | 1.05 ± 0.024
